The supplement of paper PMC9446081
Among all 39,000 compounds or so, about 220 (0.56%) showed activity. This is one part of the list.

What follows are compounds tested on Escherichia coli K-12 BW25113 (assay: relative growth (OD600 normalised to plate interquartile mean) (fraction); higher = less growth inhibition, active = 0.2 or less). Settings: 50 µM; LB; incubation time: overnight (16-24 h).
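Further: static incubation at 37 °C against the wild-type strain, values averaged over two biological replicates.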

Structure (SMILES) | relative growth
C[C@@H]1CN([C@H](C)CO)C(=O)Cc2cc(NS(=O)(=O)c3ccccc3)ccc2O[C@@H]1CN(C)Cc1ccncc1 | inactive: 0.986
O=C(CN1CCOCC1)NCC[C@H]1CC[C@@H](NS(=O)(=O)c2ccc(F)cc2)[C@H](CO)O1 | inactive: 0.986
C[C@@H]1CN([C@@H](C)CO)C(=O)c2cccc(NC(=O)c3ccc(-c4nccs4)cc3)c2O[C@@H]1CN(C)Cc1ccc(C(=O)Nc2ccccc2N)cc1 | inactive: 0.979
CCOc1ccc(-n2c([C@@H](C)N(Cc3cccnc3)C(=O)Cc3ccc(F)c(C(F)(F)F)c3)nc3ncccc3c2=O)cc1 | inactive: 0.789
O=C(C[C@H]1C[C@@H]2c3cc(NS(=O)(=O)c4ccc(F)cc4)ccc3O[C@@H]2[C@@H](CO)O1)NC1CCCCC1 | inactive: 1.02
Cc1ccc(S(=O)(=O)Nc2ccc3c(c2)C(=O)N([C@@H](C)CO)C[C@@H](C)[C@H](CN(C)Cc2ccc4c(c2)OCO4)OCCCC[C@@H](C)O3)cc1 | inactive: 0.996
O=C(C[C@@H]1CC[C@@H]2NC[C@@H](O)COC[C@H]2O1)NCCN1CCCC1 | inactive: 0.998
C[C@H](CO)N1C[C@H](C)[C@H](CN(C)C(=O)c2ccc3c(c2)OCO3)Oc2cc(-c3ccncc3)ccc2S1(=O)=O | inactive: 0.99
CC(=O)N(C)C[C@@H]1Oc2ncc(C#C[C@H](C)O)cc2C(=O)N([C@H](C)CO)C[C@H]1C | inactive: 1.04
C[C@@H]1CN([C@@H](C)CO)C(=O)CCCn2cc(nn2)CO[C@H]1CN(C)C(=O)Nc1ccc(N2CCN(C)CC2)cc1 | inactive: 1.01
CNC[C@@H]1Oc2ccc(NS(=O)(=O)c3cn(C)cn3)cc2C(=O)N([C@@H](C)CO)C[C@@H]1C | inactive: 0.83
CCS(=O)(=O)N1C[C@]2(CN(C2)C(=O)c2ccc3c(c2)OCO3)c2c(n(c3cc(ccc23)OC)C)[C@@H]1CO | inactive: 0.988
COc1ccc2c3c([nH]c2c1)[C@H](CO)N(C[C@]13CCN(CC1)Cc1cc(on1)-c1ccccc1)C(=O)Nc1ccc(cc1)F | inactive: 1.01
COc1ccc(-c2oc3cc(O[C@@H]4O[C@@H](C)[C@H](O)[C@@H](O)[C@H]4O)cc(O)c3c(=O)c2O[C@@H]2O[C@H](CO)[C@@H](O)[C@H](O)[C@H]2O)cc1 | inactive: 0.95
C[C@@H]1CCCCO[C@H](CN(C)C(=O)c2ccncc2)[C@@H](C)CN([C@@H](C)CO)C(=O)c2cc(NS(C)(=O)=O)ccc2O1 | inactive: 0.98
C[C@H](CO)N1C[C@H](C)[C@@H](CN(C)Cc2ccc(Oc3ccccc3)cc2)Oc2ccc(NC(=O)c3ccncc3)cc2CC1=O | inactive: 0.971
C[C@@H]1CN([C@@H](C)CO)C(=O)c2cc(NC(=O)Nc3ccc4c(c3)OCO4)ccc2O[C@@H](C)CCCCO[C@@H]1CN(C)Cc1ccccc1 | inactive: 1
COc1ccc(NC(=O)Nc2ccc3c(c2)C(=O)N([C@H](C)CO)C[C@@H](C)[C@H](CN(C)C(=O)Nc2ccccc2)OCCCC[C@@H](C)O3)cc1 | inactive: 1.03
CO[C@H]1CN(C)C(=O)c2ccc(NC(=O)C3CC3)cc2OC[C@H](C)N(C(=O)Cc2ccccn2)C[C@@H]1C | inactive: 1.01
Cc1cc(C(=O)Nc2cccc3c2O[C@@H](CN(C)C(=O)Nc2c(C)noc2C)[C@@H](C)CN([C@H](C)CO)C3=O)n(C)n1 | inactive: 1.01

Structure (SMILES) | relative growth
O=C(C[C@H]1CC[C@@H]2[C@H](COC[C@H](O)CN2S(=O)(=O)c2ccccc2)O1)N1CCc2ccccc2C1 | inactive: 1.01
Cc1ccc(S(=O)(=O)N(C)C[C@H]2Oc3c(NC(=O)C4CC4)cccc3C(=O)N([C@H](C)CO)C[C@@H]2C)cc1 | inactive: 0.983
C[C@@H]1CCCCO[C@@H](CN(C)C(=O)Cc2ccccc2)[C@@H](C)CN([C@H](C)CO)C(=O)c2cc(NC(=O)CCC(F)(F)F)ccc2O1 | inactive: 0.986
C[C@@H]1CN([C@H](C)CO)S(=O)(=O)c2ccc(-c3cncnc3)cc2O[C@@H]1CN(C)C(=O)Cc1ccccc1 | inactive: 1.03
COC(=O)C1C2CC3c4[nH]c5cc(OC)ccc5c4CCN3CC2CC(OC(=O)c2cc(OC)c(OC)c(OC)c2)C1OC (stereo not given) | inactive: 0.986
C[C@@H]1CN([C@@H](C)CO)C(=O)c2c(c3ccccc3n2C)-c2ccccc2CO[C@H]1CN(C)C(=O)[C@H](C)c1ccccc1 | inactive: 1.03
COc1ccc(NC(=O)N(C)C[C@H]2Oc3c(NC(=O)c4ccc(-c5nccs5)cc4)cccc3C(=O)N([C@@H](C)CO)C[C@@H]2C)cc1 | inactive: 0.981
CC(C)C[C@H]1CC(=O)N=C(N)N1 | inactive: 0.975
CC(C)CC#Cc1ccc2c(c1)O[C@@H](CN(C)C(=O)c1ccncc1)[C@H](C)CN([C@@H](C)CO)S2(=O)=O | inactive: 0.957
Cc1noc(C)c1NC(=O)Nc1ccc2c(c1)CC(=O)N([C@@H](C)CO)C[C@@H](C)[C@@H](CN(C)CC1CC1)O2 | inactive: 1.02
CCOC(=O)C(C)(C)Oc1ccc(Cl)cc1 | inactive: 1.04
CCNC(=O)[C@H]1O[C@@H](n2cnc3c(N)nc(NCCc4ccc(CCC(=O)O)cc4)nc32)[C@H](O)[C@@H]1O | inactive: 0.99
CC1(C)SCCN(S(=O)(=O)c2ccc(OCC#CCO)cc2)[C@H]1C(=O)NO | inactive: 1.01
C[C@@H]1CN([C@H](C)CO)C(=O)c2cc(NS(=O)(=O)c3ccc(Cl)cc3)ccc2O[C@H]1CN(C)C(=O)Nc1ccc(C(F)(F)F)cc1 | inactive: 0.984
C[C@@H]1CN([C@H](C)CO)C(=O)c2cc(NS(=O)(=O)c3cn(C)cn3)ccc2O[C@@H](C)CCCCO[C@H]1CN(C)C | inactive: 0.984
COc1ccc2c3c([nH]c2c1)[C@@H](CO)N(C[C@]13CN(CC2CCCCC2)C1)S(=O)(=O)c1cn(cn1)C | inactive: 0.985
C[C@@H]1CN([C@@H](C)CO)C(=O)c2cc(NC(=O)Cn3cnnn3)ccc2O[C@@H]1CN(C)Cc1ccc2c(c1)OCO2 | inactive: 0.967
CN1CCN(S(C)(=O)=O)CC1 | inactive: 1.01
C[C@H](CO)N1C[C@H](C)[C@@H](CN(C)Cc2ccncc2)OCCCC[C@H](C)Oc2ccc(NS(C)(=O)=O)cc2C1=O | inactive: 0.983
NCc1ccc(S(N)(=O)=O)cc1 | inactive: 0.893

Structure (SMILES) | relative growth
CC(=O)NCCCS(=O)(=O)[O-].CC(=O)NCCCS(=O)(=O)[O-].[Ca+2] | inactive: 1.1
CO[C@@H]1CN(C)C(=O)c2ccc(NC(=O)CN(C)C)cc2OC[C@@H](C)N(C(=O)C2CCOCC2)C[C@H]1C | inactive: 1.01
C[C@H](CO)N1C[C@H](C)[C@H](CN(C)S(=O)(=O)c2ccccc2)Oc2c(NS(=O)(=O)c3cccs3)cccc2C1=O | inactive: 0.988
COc1ccc(-c2cccc(-c3nc(C(=O)NCC(F)(F)F)cc4c3[C@@H](CCO)N([S@](=O)C(C)(C)C)C4)c2)cc1 | inactive: 1.02
O=C(Cc1ccncc1)NCC[C@@H]1CC[C@H](NC(=O)C2CCOCC2)[C@@H](CO)O1 | inactive: 0.999
C[C@@H]1CN([C@@H](C)CO)C(=O)c2cc(NC(=O)Nc3ccc4c(c3)OCO4)ccc2O[C@@H](C)CCCCO[C@@H]1CN(C)Cc1ccc2c(c1)OCO2 | inactive: 1.01
C[C@H]1CN([C@@H](C)CO)C(=O)c2cc(Br)cnc2O[C@@H]1CN(C)C(=O)Nc1ccc(F)cc1 | inactive: 1
C[C@@H]1CN([C@H](C)CO)C(=O)c2cc(NC(=O)Nc3ccc(F)cc3)ccc2O[C@@H](C)CCCCO[C@H]1CN(C)S(=O)(=O)c1ccc(F)cc1 | inactive: 1.05
CO[C@H]1CN(C)C(=O)c2cc(NS(=O)(=O)CC(F)(F)F)ccc2OC[C@H](C)N(C(=O)c2ccc3c(c2)OCO3)C[C@H]1C | inactive: 0.966
Cc1noc(C)c1S(=O)(=O)Nc1ccc2c(c1)C(=O)N([C@H](C)CO)C[C@@H](C)[C@@H](CN(C)Cc1ccccc1)O2 | inactive: 0.998
COc1ccc(S(=O)(=O)N(C)C[C@H]2Oc3c(NC(=O)Nc4c(C)noc4C)cccc3C(=O)N([C@@H](C)CO)C[C@@H]2C)cc1 | inactive: 1.04
C[C@H]1CN([C@@H](C)CO)C(=O)c2ccccc2-c2ccccc2CO[C@@H]1CN(C)C(=O)Nc1cccc(C(F)(F)F)c1 | inactive: 1.01
CC(C)=CCCC(C)CC=O (stereo not given) | inactive: 1
COc1ccc(S(=O)(=O)N(C)C[C@H]2Oc3c(NS(=O)(=O)c4ccc(F)cc4)cccc3C(=O)N([C@H](C)CO)C[C@@H]2C)cc1 | inactive: 0.997
C[C@@H]1CN([C@@H](C)CO)C(=O)c2cc(NC(=O)Nc3ccc(C(F)(F)F)cc3)ccc2O[C@@H](C)CCCCO[C@@H]1CN(C)Cc1ccc2c(c1)OCO2 | inactive: 1
CNC[C@@H]1Oc2cc(C#CC(C)(C)O)ccc2S(=O)(=O)N([C@@H](C)CO)C[C@@H]1C | inactive: 1
C[C@@H]1CN([C@@H](C)CO)C(=O)c2cc(NS(=O)(=O)c3cn(C)cn3)ccc2O[C@@H]1CN(C)Cc1ccccc1 | inactive: 1.02
O=C(C[C@@H]1C=C[C@H](NS(=O)(=O)c2ccc(F)cc2)[C@H](CO)O1)NCCN1CCCCC1 | inactive: 0.999
COc1cccc(S(=O)(=O)N2C[C@@H](O)COC[C@@H]3O[C@H](CC(=O)N4CCN(C)CC4)CC[C@H]32)c1 | inactive: 1
C[C@@H]1CCCCO[C@@H](CN(C)C(=O)Nc2cccc3ccccc23)[C@H](C)CN([C@@H](C)CO)C(=O)c2cc(NC(=O)Cc3ccccc3)ccc2O1 | inactive: 1.04
